Measurements: PubChem BioAssay AID1508624 (National Center for Advancing Translational Sciences (NCATS), 2021)
Hit rate of the full screen: of about 48,000 compounds, about 120 (0.25%) were called active. Not shown: some 4% with an inconclusive outcome. Calls follow the shape of the dose curve; as a rule, active = well fitted activation curve with a large enough effect; inconclusive = small, poorly fitted or top-dose-only effect, or another doubt; inactive = no such curve, though single readings can be large or run the other way. The list shows a part of the results.

Assay: Primary qHTS for Identification of Small Molecule Activators of Huntingtin-Antisense Promoter Activity; also: nearly all actives have a fitted effect of over 55% in size
Conditions: HEK293 HTT-AS promoter firefly luciferase reporter (activity 0% = vehicle and -100% = no light), 24 h; series mostly up to 57.5 µM; activity change, positive = activation: at the top concentration
Summary of the method: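 HEK293 luciferase promoter-reporter cells (2,500/well) plated 24 h, then compounds added at up to 57.5 uM final for 24 h at 37 °C. Firefly luminescence by Dual-Glo, normalized to vehicle (0%) and zero RLU (-100%).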

Activity change, positive = activation, inactive:
COc1ccc(-c2nn(-c3ccc(C)cc3)c3c2cnc2ccc(C)cc23)cc1OC -19.4%
CCCN1CCN(CCCNC(=O)C(CC)n2nc(C)n3c(cc4occc43)c2=O)CC1 (configuration not stated) -6.13%
CC1=C(C(=O)O)N2C(=O)[C@@H](NC(=O)[C@H](N)C3=CCC=CC3)[C@H]2SC1
COc1cccc(NC(=O)c2cc3c(-c4ccc(Cl)cc4)nn(C)c3s2)c1 -20%
O=C(NCC(c1cccnc1)N1CCN(Cc2ccccc2)CC1)C(=O)Nc1cccc(Cl)c1 (configuration not stated) -14.9%
O=C(O)c1cccc(-n2cnc3cccnc32)c1 -3.14%
CCc1nnc(NC(=O)c2nc(SC)ncc2Cl)s1 -11.7%
CCSc1oc(-c2cccs2)nc1S(=O)(=O)c1ccc(Br)cc1 -5.85%
NC(=O)CSc1nc2c(oc3ccccc32)c(=O)n1Cc1ccccc1 -5.04%
Cc1ccccc1C(=O)Nc1c(C(=O)Nc2cccc(F)c2)oc2ccccc12 -15.3%
O=C(NCc1ccc2c(c1)OCO2)c1ccc2c(c1)N(Cc1ccccc1F)C(=O)c1ccccc1S2=O (configuration not stated) -18.3%
C[C@@H]1CCC[C@H](C)N1CCCC(O)(c1ccccc1)c1ccccn1 (some centres not stated) -13.7%
Cc1cccn2c3c(c(=O)nc12)C(c1ccc(F)cc1)CC(=O)N3 (configuration not stated) -9.72%
CCCN(C(=O)c1c(C)oc2ncnc(N3CCOCC3)c12)c1ccc(Cl)c(Cl)c1 -9.34%
O=S(=O)(NCC(c1ccco1)N1CCN(c2ccccc2)CC1)c1ccccc1 (configuration not stated) -22.7%
CCOc1ccc(Cn2nnc(C(=O)Nc3ccc(Cl)cc3)c2N)cc1 4.55%
COc1ccccc1CNC(=O)C1CCN(C(=O)c2sccc2-n2cccc2)CC1 -11.8%
CN(C1CCCCC1)S(=O)(=O)c1ccc2c(c1)c(=O)c(C(=O)NCc1ccc(F)cc1)cn2C -6.67%
CCn1ccc2c(OCC(=O)Nc3ccc(C(C)=O)cc3)cccc2c1=O -8.66%
COc1ccccc1CNC(=O)c1cc2c(-c3ccc(Cl)cc3)nn(C)c2s1 -19.3%
CCc1ccccc1NC(=O)CSc1nnc(-c2ccccc2)c(-c2ccccc2)n1 -33.7%
O=C(CN(c1ccc(Cl)c(C(F)(F)F)c1)S(=O)(=O)c1ccccc1)Nc1cccnc1 -27.6%
COc1cc(OC)cc(-c2cc3nc(C)c(CCC(=O)Nc4ccccc4OC)c(C)n3n2)c1 -83.4%
COCCNC(=O)Cn1c(=O)c2cccn2c2ccc(F)cc21 -3.7%
CCCCc1ccc(-n2nc3cc(Cl)c(NC(=O)c4ccc(OC)cc4)cc3n2)cc1 10.8%
CCOC(=O)c1ccc2nc(C)cc(Nc3ccc(OC(C)C)cc3)c2c1 -30.9%
Cc1ccc(-n2cnc3cc(C(=O)NCc4ccc(F)cc4)ccc32)c(C)c1 -24.3%
Cc1cccc(C(=O)NCCc2nc3ccccc3n2Cc2ccc(Cl)cc2)c1 -34%
Cc1ccc(OC(C)C(=O)N2CCN(CCc3ccncc3)CC2)cc1C (configuration not stated) -17.3%
CCOC(=O)c1cccc(NS(=O)(=O)c2ccc3[nH]c4c(c3c2)CCCC4)c1 -38.9%
Cc1ccc(NC(=O)c2ccc(Cl)cc2Cl)c(C(=O)c2ccccc2)c1 -25%
CCOc1ccc(-c2cc3c(=O)n(Cc4nc(-c5ccccc5OCC)oc4C)ccn3n2)cc1Cl -14%
O=S(=O)(NCc1ccc(Cl)cc1)c1ccc2[nH]c3c(c2c1)CCCC3 -36.4%
Cc1ccc(Cn2c(C)c(CNCC(C)c3ccccc3)c(C(=O)O)c2C)cc1 (configuration not stated) -20.3%
CCC(CC)C(=O)Nc1ccccc1SCc1cc(=O)c2cccc(C)c2[nH]1 -18.2%
COCCCNC(=O)C1CCC(Cn2c(=O)c3sccc3n(C)c2=O)CC1 (configuration not stated) -7.38%
Cc1ccc(NC(=O)CN2CCN(c3ccccc3F)CC2)cc1F -6.68%
CCOC(=O)C1CCN(c2nc3c(S(=O)(=O)c4ccccc4)nnn3c3ccc(Cl)cc23)CC1 -22.2%
O=c1c(=O)n(-c2ccccc2)ccn1Cc1c(F)cccc1Cl -7.58%
CCOc1cccc(NC(=O)c2sc3nc(-c4ccc(F)cc4)ccc3c2N)c1 -3.49%
COc1cc(CNCCSc2nnnn2C)ccc1OCc1ccc(C)cc1 14.3%
CCSc1ncc(Cl)c(C(=O)N(Cc2ccccc2)c2ccc(OC)cc2)n1 -46.1%
O=C(COCc1cc(-c2cccs2)on1)N1CCN(c2ccc(F)cc2)CC1 2.25%
Cc1nc2cccnc2n1C1CCN(C(=O)Nc2ccccc2)CC1 -2.5%
Cc1cc(C)cc(N2CC(c3nnc(NC(=O)c4ccco4)s3)CC2=O)c1 (configuration not stated) -20.3%
COc1cc(C(=O)Nc2ccc(-n3c(C)nc4ccccc4c3=O)cc2)cc(OC)c1OC -6.37%
Cc1nc(-c2ccc(Cl)cc2)oc1COC(C)(C)C(=O)O -9.21%
O=c1c2oc3ccccc3c2n(Cc2ccc(F)cc2)c(=O)n1Cc1ccco1 -12.6%
CCCCn1c(=NC(=O)c2c(-c3c(F)cccc3Cl)noc2C)c(C(=O)OCC)cc2c(=O)n3ccccc3nc21 -15.9%
Cc1ccc(-c2noc(-c3ccc(NCc4cccnc4)c([N+](=O)[O-])c3)n2)cc1 9.12%
CCOC(=O)C1CCN(C(c2ccc(OCC)cc2)c2c(O)cc(C)n(CCOC)c2=O)CC1 (configuration not stated) 4.13%
COc1ccc(CNS(=O)(=O)c2cc(Br)cc3c2N(C(C)=O)C(C)C3)cc1 (configuration not stated) -20.1%
O=C(NCc1cccc(F)c1)c1ccc(CN2CC(=O)N3CCCCC3C2=O)cc1 (configuration not stated) -19.5%
CC(=O)C1=C(c2ccc(Cl)c(Cl)c2)N(C(C)=O)n2c(nnc2-c2ccccc2)S1 -1.51%
O=C(COCc1cc(-c2ccc(F)cc2)on1)Nc1cc(Cl)ccc1O -21.4%
Cc1ccccc1-n1nc(CO)c(C(=O)NCC(c2ccccc2)c2ccccc2)n1 -43.6%
COc1ccc(CCNC(=O)CCCn2c(=O)c3ccccc3n(Cc3ccccc3C#N)c2=O)cc1OC -5.26%
COc1cccc2cc(-c3nc(Nc4cccc(C)c4C)sc3C)c(=O)oc12 -20.1%
Nc1nonc1C(=O)NCCNCc1ccccc1F -7.31%
COc1cccc(C2C=C(c3ccccc3)Nc3c(C(=O)Nc4ccccc4)cnn32)c1OC (configuration not stated) -22.9%
COc1cc(C(CC(=O)Nc2cccc(C(C)=O)c2)N2Cc3ccccc3C2=O)cc(OC)c1OC (configuration not stated) -34.8%
CC1(C)[C@H](C(=O)O)N2C(=O)C[C@H]2S1(=O)=O
CC(=O)Nc1nonc1-c1nnc(SCC(=O)Nc2cc(Cl)ccc2C)n1C -16.1%
CCOC(=O)c1c(NC(=O)/C=C/c2ccc(C)cc2)sc(C(C)=O)c1C -5.3%
COc1ccc(C(=O)c2sc3nc(-c4ccc(C)cc4)cc(C(F)(F)F)c3c2N)cc1 -15%
CCCCc1c(C)nc2c(-c3ccc(Cl)cc3)c(C)[nH]n2c1=O -21%
Cc1ccc(C)c(N2CCN(S(=O)(=O)c3ccc(-c4coc(C)n4)cc3)CC2)c1 -28%
CCOC(=O)C(CC)n1nc(C)c2c(C)n(-c3ccc(C)cc3)nc2c1=O (configuration not stated) -26.6%
CCCCN(CCCNC(=O)c1cc(Nc2ccc(OC)cc2)nc2ccccc12)Cc1ccccc1 -2.19%
COc1ccc(-n2cc(-c3ccc4c(c3)OCO4)n(CC(=O)Nc3cccc(C)c3C)c2=O)c(OC)c1 -28.5%
Cc1ccc(S(=O)(=O)c2nc(S(=O)(=O)c3ccc(C)cc3)c(NCCCOC(C)C)s2)cc1 -3.31%
O=S(=O)(Nc1ccc(F)c(Cl)c1)c1ccc(Br)s1 -28.4%
CCOC(=O)c1ccc(N2C(=O)c3n[nH]c(-c4cccs4)c3C2c2ccc(CC)cc2)cc1 (configuration not stated) -81.1%
COc1cc2c3cc1Oc1cc(ccc1O)C[C@@H]1c4c(cc(OC)c(O)c4Oc4ccc(cc4)C[C@@H]3N(C)CC2)CC[N+]1(C)C -11%
Cc1cccc(N2CCN(C(=O)Cn3ncc4c5ccccc5n(C)c4c3=O)CC2C)c1 (configuration not stated) -6.74%
O=c1c(S(=O)(=O)c2ccccc2)cn(Cc2ccc(F)cc2)c2cc(N3CCOCC3)c(F)cc12 -10.1%
Cc1cc(Nc2ncc3c(n2)N(C)C(=O)N(c2cc(NC(=O)c4cccc(C(F)(F)F)c4)ccc2C)C3)n(C)n1 -19.6%
CC(C)CC(=O)Nc1ccccc1OCc1cc(=O)n2ccccc2n1 -7.21%
CC(=O)N1CCc2c(sc3c2c(=O)n(-c2cc(Cl)ccc2C)c(=O)n3Cc2ccccc2F)C1 -35.1%
O=C(Nc1ccc(Br)cc1F)N1CCC(CN2CCc3ccccc3C2)CC1 -5.87%
COC(=O)c1cc(Cl)ccc1NC(=O)CSc1ncc(S(=O)(=O)c2ccc(Br)cc2)c(=O)[nH]1 -5.51%
COc1ccc(C(=O)COC(=O)CCCC(=O)Nc2cc(C(F)(F)F)ccc2Cl)cc1 -6.24%
COc1ccc(OCC(=O)OCc2cc(=O)n3nc(C4CC4)sc3n2)cc1 -14.7%
CCCCOC(=O)c1ccc(NC(=O)c2cc(-c3cccs3)on2)cc1 -13.1%
CCOC(=O)c1c(NC(=O)/C=C/c2ccc(C)cc2)sc2c1CCCC2 -11%
O=C(NCCc1ccc(Cl)cc1)c1cc(-c2ccc(Cl)cc2)n[nH]1 -6.66%
Cc1ccc(CNC(=O)CCCc2nnc3n(C)c(=O)c4sccc4n23)cc1 -0.545%
CCC(C)NC(=O)c1ccc2nc(CCc3ccccc3)oc2c1 (configuration not stated) 3.16%
Cc1ccc(NC(=O)C(=O)NCC(c2ccc3c(c2)OCO3)N2CCOCC2)cc1C (configuration not stated) -6.92%
Cn1c(=O)c2c(nc(NCCc3ccccc3)n2Cc2ccc(Cl)cc2)n(C)c1=O -40.3%
Cc1cccc(C(=O)Nc2sc3c(c2C(=O)NC(C)C)CCCC3)c1 -31.5%
CCOC(=O)c1cc(S(=O)(=O)NCc2cccc(Cl)c2)[nH]n1 12.4%
O=C(O)c1ccc(-c2c[nH]c3ncc(-c4ccccc4)cc23)cc1C1CCCC1 -11.3%
CCOC(=O)c1cnc2cc(F)c(F)cc2c1Nc1ccccc1O -12.5%
CC(C)(C)OC(=O)N1CCC(c2c(C(=O)N3CCCCC3)cnn2-c2cccc(F)c2)CC1 0%
Nc1nnnn1-c1ccccc1 -8.79%
CC(=O)c1ccc(N2CCN(C(=O)CCc3nnc4n(C)c(=O)c5sccc5n34)CC2)cc1 -23.2%
